# The list shows a part of the results.
# Test system: PfSIP2 AP2 domain 1 (GST-tagged)
# Assay: gcPBM binding intensity (ln(normalized median fluorescence intensity)); higher = stronger DNA binding
# Method in brief: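 DNA-binding domains from P. falciparum, fused to GST and produced in E. coli, were put on an Agilent 4 × 180k double-stranded probe array for 1 h in 1× PBS holding 1% milk, 0.2 mg/ml BSA, 0.5% salmon testes DNA and 0.03% Triton X-100. Probes were primer-extended, 36 bp long and drawn from intergenic genomic regions, with negative controls included. After Alexa488 anti-GST antibody detection and a 488 nm scan, binding intensity was set as the highest Masliner-normalised natural-log median intensity across replicate spots of either probe orientation.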
row,Sequence,gcPBM binding intensity (ln)
1,AAAAGAAAATAAGAAACACACAAAAATATATAAAAA [CACACA_site3697],6.65
2,TTCTTTGCTTTTCAAACACACAAAAGTTATTATATT [CACACA_site521],7.22
3,TTATAAATGTATTTATGTACATATAAATATATATAA [XGTACX_site2970],7
4,ATATAAATCAAAAACGCACACATAAATATTTATATA [CACACA_site2442],7.31
5,ATAAAAGAATAAATAAAACACATATATATATATATA [XGTACX_negctrl_site31],9.43
6,TTTTTTTTTTTTTTGGTGCACATAGAAATTCTAAAA [GTGCAC_site9809],11.3
7,CCTATTTATAAATACACACACATATATAAATAAATA [CACACA_site5629],7.18
8,AAAAAACTATTATGTGCATGCACAAGTCAGGTAAAT [TGCATGCA_site791],8.71
9,TATTTATAGATATATACACACATATTTATATTTATA [CACACA_site6441],6.83
10,AAAAAGAAATCCAATACACACCTTCAAAATGGGTAT [CACACA_site4978],6.55
11,CATTAAATATATAAATGTACAAATATATTTTTCAAA [XGTACX_site4429],6.98
12,TTGTTCATATTTTTTATTGTGTTAATATTTATAAAA [GTGCAC_negctrl_site423],7.28
13,TTAATGTAGAGAAAATGTACATTTTATTAAAACAAT [XGTACX_site6376],7.13
14,TTTTAAATATATGTGCTATTATATTAAGAGATGTAA [GTGCAC_negctrl_site560],7.15
15,ATCTATAAATTTCCACGTACATATATATATATATAT [XGTACX_site4502],9.19
16,CCTCTTTTTATTCTCACACACGTTTATATATAAAGT [CACACA_site4992],7.68
17,TTTTTTATTTTTGCGTGTACATAATAATGAATCTTC [XGTACX_site8077],7.35
18,GAAATTTCCCATATTACACACATACTATGATATATA [CACACA_site5987],7.12
19,ATGCGTTAATCTATATATATTATGTATAGATTTTCA [CACACA_negctrl_site1650],6.81

row,Sequence,gcPBM binding intensity (ln)
1,AACATATTTATGATGTGTACCTACATAATAGAATTT [XGTACX_site141],6.91
2,TTTTTTAATATATTATTATAAATATTTTTTATGTGT [GTGCAC_negctrl_site712],6.85
3,CATAATGTAAATAAGTGTACACATATATAATACATA [XGTACX_site3108],7.57
4,ATATTTTGATAATATTGTACAAAAACATTAAAATGT [XGTACX_site8361],6.99
5,AACATTATGTTTATTTGTACATATAAATATATGTAA [XGTACX_site7389],6.89
6,TCTTTTATGATATTTACACACAAACGTGAGATAGCT [CACACA_site2312],6.87
7,CTCTACGAATTCATAGTGCAAAGAGCTAATTTTTTC [GTGCAC_site9710],7.63
8,GATCATTCAGTTTTATCACACACAATCAAACATATA [CACACA_site8882],7.28
9,ACAACATATGTTATCACACACATATAAATATAAATA [CACACA_site7038],6.87
10,ATTTTGATGATGTATGCACACATTGAAAATGAGAAA [CACACA_site2916],9.12
11,ATATATATATATATATGTACATATTTGATTTTTCTT [XGTACX_site8171],9.44
12,CACACGCACAGACACACACACACACGGATATAAATA [CACACA_site6301],7.71
13,TTTTTTTTTTTTTTTTGTACATATAAAAATACGTAA [XGTACX_site6003],7.1
14,TCACTACATTTTGGACGTACACAACTTGATATATTG [XGTACX_site4775],7.29
15,ATGATATACTTGAGTGTGCACAAACTATTACTTACA,9.32
16,AAATCTTAACTCTATGCACACATAAAAGTATATAAA [CACACA_site8709],7.21
17,ATCGGTAATATTAACACACACATTTATATATATTTA [CACACA_site1084],7.2
18,TTTTGTAGATATTGAAGTACAAAAAAAATGTAAAAG [XGTACX_site5905],7.06
19,TATATATCGCCCTTCACACACACACGGATATAAATA [CACACA_site7221],7.49

row,Sequence,gcPBM binding intensity (ln)
1,CGCTCTTATAAATGTTGTACATAAAACTGTTCATTA [XGTACX_site3409],7.11
2,ATAATAAATATATAATGTACATATTATGTTCTTTAT [XGTACX_site8655],6.93
3,ATGAATAATTAATGATGTACTTAAAAAAAAAAATAT [XGTACX_site6346],7.1
4,AAAAAAAAAAAAAAAAAAAAAAAAAAAAAAACATAT [GTGCAC_negctrl_site580],9.02
5,ATATATTATATTGAATGTACATATATATATTATATA [XGTACX_site8445],7.33
6,GTTAATATCTTGAACAGTACTCTAAATATCTACATA [XGTACX_site5358],6.81
7,TAGCCCATATGGAATACACACTGAAAATAAAAAAAG [CACACA_site5799],7
8,TTACAATAAATTATAGTGCAATATTTTATTTAATAT,8.45
9,TGCTATAATTTATATACACACAAATATATACACATA [CACACA_site9356],7.03
10,GATAATAATAAACAACCACACACAAAAAAACAAAAA [CACACA_site9074],7.09
11,CAATGTTGTACATACACACACACAAAAAAAAAATAA [CACACA_site2407],7.2
12,TTCAAATTTCCACATACACACCTTGTAGATCTATAT [CACACA_site6270],6.91
13,ATAAAAAAACACACTCGTACACACATATTTTCTTTC [XGTACX_site6565],7.13
14,TTTATATTATTAGAAACACACATTAGATTAAAATTA [CACACA_site3286],6.84
15,TATATATATATGTGCACACCAATTGTATGTAATATA [CACACA_site3889],9.51
16,TATTTAATTACATGAACACACATTATATATTTTTAA [CACACA_site5615],6.9
17,ATATAACACATTAGTTGTACTATTTTTAATTGGTGA [XGTACX_site961],6.91
18,ACTACATAATATTAACGTACATATTATAATACTTGC [XGTACX_site954],7.33
19,TACATAATAACATGTACACACATTCTTCTATAAATG [CACACA_site4061],6.97

# From the supplement of paper PMC11417369
